Measurements published in PubChem BioAssay AID686971 (National Center for Advancing Translational Sciences (NCATS), 2013).
About 7,500 (2.1%) of roughly 360,000 compounds were called active. Inconclusive means that the source gave no clear call. Such entries were picked first, then a sample of the others. The call rests on the fitted dose curve; in most records, active means well fitted cell-killing curve with a large enough effect; inconclusive means small, poorly fitted or top-dose-only effect, or effect the other way, or another doubt; inactive means no such curve, though single readings can be large or run the other way. No potency is given beside an inconclusive call; the fits are too rough.

Assay: qHTS for induction of synthetic lethality in tumor cells producing 2HG: qHTS for the HT-1080-IDH1KD cell line;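 on activity, negative = toxicity: 0% = DMSO wells and -100% = cell-free medium wells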
Settings: HT-1080 IDH1 knockdown viability, ATP luminescence, 48 h; activity, negative = toxicity: at 46.1 µM (top of the series) unless noted
How it was run: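 HT-1080-IDH1KD cells (IDH1 knocked down), 750/well in RPMI with 5% FBS, treated with compound 48 h at 37 degrees C. Viability by CellTiter-Glo luminescence, normalised to DMSO and no-cell wells; concentration-response curves classed.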
Potency means the concentration at half of the fitted maximal effect; tags describe the fitted curve by direction and shape.

Structure (SMILES)	activity, negative = toxicity	Potency
O=C1C2C3C=CC(C4CC34)C2C(=O)N1CCc1ccccc1 (stereo not given)	inactive: -1.9%	–
N#Cc1cccc(NC(=O)c2cc(C3CCCCN3C(=O)C3CC3)on2)c1 (stereo not given)	inactive: -2.75%	–
COc1ccc(Cc2c(-c3ccc(F)cc3)nc3c4ccccc4ccn23)c(C)c1	–	inconclusive [cytotoxic, single point]
CC1=C(C(=O)Nc2cc(C(=O)N3CCN(c4cccc(C)c4C)CC3)ccc2C)SCCO1	–	inconclusive [cytotoxic, single point]
COc1ccccc1NC(=S)NC(=O)C(C)(C)C	–	inconclusive [cytotoxic, single point]
O=C(CSc1nc(-c2ccccc2)c(-c2ccccc2)[nH]1)NCc1ccco1	–	inconclusive [cytotoxic, single point]
COc1ccc(OCC(=O)OCC(=O)NC2CCCCC2C)cc1 (stereo not given)	inactive: 16.7%	–
CCc1noc(C)c1C(=O)Nc1nc2ccc(F)cc2s1	inactive: -14.1%	–
Cc1ccc(O)c(-c2cc(-c3cccc(Br)c3)n[nH]2)c1	–	inconclusive [cytotoxic, single point]
CCOCCCN1CN(Cc2ccccc2)CNC1=S	inactive: -1.45%	–
CCc1ccc(NC(=O)CNS(=O)(=O)c2c(C)noc2C)cc1	inactive: -2.89%	–
COc1cc2nc(N(C)C)nc(NC3CCN(C)CC3)c2cc1OC	–	inconclusive [cytotoxic, single point]
O=C(c1c(F)cccc1F)N(Cc1ccccn1)C1CCCC1	–	inconclusive [cytotoxic, partial curve, poor fit]
Cc1noc(NS(=O)(=O)c2ccc(N/C=C\C(=O)c3cccc4ccccc34)cc2)c1C	–	inconclusive [cytotoxic, single point]
CN(C)c1nc(=NCc2cccs2)ss1	–	inconclusive [cytotoxic, single point]
C/C(=N\NC(=O)c1cc(C)nc2ccccc12)c1ccccn1	–	inconclusive [cytotoxic, full curve]
C=CCC[C@H](Cc1ccc(F)cc1)C(=O)OC[C@H]1CCCN1C(=O)[C@@H](CC=C)CC(=O)NCCO	inactive: -0.373%	–
Cc1ccc(C)c(C(Nc2ccccc2)c2ccc3ccc(C)nc3c2O)c1 (stereo not given)	–	inconclusive [cytotoxic, partial curve]
CCCNC(=O)c1noc2c1CCc1cc(OC)ccc1-2	inactive: 1.57%	–
CCN1CCN(C(=O)CCc2nnc(CCc3ccc(OC)cc3)o2)[C@@H](C)C1=O	inactive: 6.24%	–
COc1ccc(OCCSc2ccc(S(=O)(=O)N3CCCC3)cn2)cc1	inactive: -22%	–
O=C(Nc1ncc(Cc2cccc([N+](=O)[O-])c2)s1)c1ccco1	–	active: 4.61 µM
O=C(Nc1ccc2ccccc2c1)Nc1ccc2snnc2c1	–	inconclusive [cytotoxic, single point]

Structure (SMILES)	activity, negative = toxicity	Potency
COC(=O)c1sc(-c2ccc(Cl)cc2)cc1NC(=O)/C=C/C(=O)O	–	inconclusive [cytotoxic, single point]
O=C1N[C@@H](c2ccccc2)COC(=O)[C@H](Cc2ccc(F)cc2)CC/C=C/C[C@@H]1CC(=O)N(CCO)Cc1ccccc1	–	inconclusive [cytotoxic, single point]
COCCCn1c(SCc2nc3ccccc3c(=O)[nH]2)nc2ccccc2c1=O	–	inconclusive [cytotoxic, partial curve]
O=C1/C(=C\c2cc([N+](=O)[O-])ccc2O)SC(=S)N1Cc1ccc(Cl)cc1	–	active: 23.1 µM
Nc1cccc(C(=O)OCC(=O)Nc2cccc3c2C(=O)c2ccccc2C3=O)c1	–	inconclusive [cytotoxic, partial curve]
O=S(=O)(Nc1cccc2ncccc12)c1cccs1	–	inconclusive [cytotoxic, partial curve]
C/C(=N\N=C(N)N)c1cccc(Cl)c1	–	inconclusive [cytotoxic, partial curve]
CCNc1ccc(S(=O)(=O)C(F)(F)F)cc1NC(=O)C12CCC(CC1)C2	–	inconclusive [rising, full curve, poor fit]
N#Cc1c(-c2ccccc2)cc(-c2ccccc2)nc1SCCC(=O)O	–	inconclusive [cytotoxic, single point]
COc1ccc(NC(C)=O)cc1S(=O)(=O)N1CC=C(c2ccccc2)CC1	inactive: 1.72%	–
CN(CCc1ccccn1)Cc1ccc(Cl)cc1Cl	–	inconclusive [rising, single point]
CCOC(=O)c1cc(-c2ccc(F)cc2)n(CCC(=O)NC2CCN(Cc3ccccc3)CC2)c1C	–	inconclusive [cytotoxic, single point]
Cc1onc(-c2c(F)cccc2Cl)c1C(=O)OCC(=O)NC(c1ccccc1)c1ccccc1	–	inconclusive [cytotoxic, single point]
O=c1[nH]c(NNC(=S)NCc2ccccc2)nc2c1C1(CCCCC1)Cc1ccccc1-2	inactive: -15.9%	–
CCOC(=O)c1sc2cc([N+](=O)[O-])cc(SCC(=O)OC)c2c1N	–	inconclusive [cytotoxic, single point]
CN(C)c1ccc(C=c2c3cc(O)ccc3n3c2cc(-c2ccccc2)[n+]3C)cc1	–	inconclusive [cytotoxic, single point]
CS(=O)(=O)N(Cc1ccccc1)c1ccc(C(=O)NCc2ccccc2)cc1	inactive: 2.65%	–
O=C(CCCCCN1C(=O)c2cccc3cccc(c23)C1=O)NCc1cccnc1	–	active: 2.31 µM
CC1CCc2nc(NC(=O)CSc3nc4ccccc4o3)sc2C1 (stereo not given)	–	inconclusive [cytotoxic, partial curve]
CCCCn1nnnc1C(c1ccccc1)N1CCN(C/C=C/c2ccccc2)CC1 (stereo not given)	–	inconclusive [cytotoxic, single point]
Cc1ccc(NC(=O)CCC(=O)N/N=C/c2ccc(O)cc2O)cc1	–	inconclusive [cytotoxic, single point]
CC(=O)Nc1ccc(NC2=C/C(=N/S(=O)(=O)c3cccs3)c3ccccc3C2=O)cc1	–	active: 9.2 µM
